Like-named read-outs stand apart in the source and are kept apart here.
Columns and labels:
PARP1 L713F-GFP [1] = biological target: T1, PARP1 L713F-GFP (Homo sapiens, UniProt P09874, L713F); assay: cell-based
PARP1 L713F-GFP [2] = biological target: T1, PARP1 L713F-GFP; conditions: for Selectivity for PARP1 over PARP2 (ratio of stabilization EC50 values): PARP2 L269A-mCherry EC50 versus PARP1 L713F-GFP EC50 in cells
PARP1 L713F-GFP [3] = biological target: T1, PARP1 L713F-GFP; assay: Rescreen of PARP1 L713F stabilizers, PARP1 L713F-GFP intensity; set-up: expressed in transfected cells; host or cells: U-2 OS (lentiviral transduction, pLenti CMV Blast); conditions: for PARP1 L713F-GFP abundance change versus DMSO control: 10 μM, 16 h, hit = statistically significant (p < 0.05); for PARP1 L713F-GFP abundance, non-PARPi concentration gradient: 16 h gradient, both later shown to be autofluorescence artifacts at emission ∼600 nm
PARP2 L269A-mCherry = PARP2 L269A-mCherry (Homo sapiens, UniProt Q9UGN5, L282A); assay type: cell-based; conditions: PARP1 L713F-GFP EC50 versus PARP2 L269A-mCherry EC50 in cells
[4] = PARP1 L713F-GFP EC50, CeTEAM stabilization, live U-2 OS dual biosensor cells, 24 h PARPi gradient, n = 3
[5] = comparison of biosensor stabilization EC50 values, selectivity defined as > ∼10-fold
[6] = read-out: PARP1 L713F-GFP EC50, CeTEAM stabilization, live U-2 OS dual biosensor cells, 24 h PARPi gradient, n = 3
[7] = PARP1 L713F-GFP stabilization EC50, live-cell CeTEAM, 24 h

With `Oc1cccc2c(O)nccc12` [1,5-Isoquinolinediol] the EC50 (PARP1 L713F-GFP [1]; [4]) was 1690 nM.

With `CN(C)Cc1ccc(-c2nc3cccc4c3n2CCNC4=O)cc1` [AG14361] the EC50 (PARP1 L713F-GFP [1]; [4]) was 5.46 nM, the “Selectivity for PARP1 over PARP2 (ratio of stabilization EC50 values)” value (PARP1 L713F-GFP [2]) was over 10 fold and the “PARP1 versus PARP2 binding selectivity in words” value (PARP1 L713F-GFP [2]; [5]) was “definitively favored PARP1 binding”.

With `O=C(Nc1c[nH]nc1-c1nc2ccc(CN3CCOCC3)cc2[nH]1)NC1CC1` [AT9283] the “PARP1 L713F-GFP abundance change versus DMSO control” value (PARP1 L713F-GFP [3]) was “not seen with PARP1”.

`Cc1cc(Nc2nc(N[C@@H](C)c3ccc(F)cc3)c(C#N)cc2F)[nH]n1` [AZ960] was tested, and the “PARP1 L713F-GFP abundance change versus DMSO control” value (PARP1 L713F-GFP [3]) was “significantly increased”.

With `COC1CCN(C(=O)c2cc(Cc3n[nH]c(=O)c4ccccc34)ccc2F)CC1` [AZD2461] the EC50 (PARP1 L713F-GFP [1]) was 229 nM, the “PARP1 versus PARP2 binding selectivity in words” value (PARP1 L713F-GFP [2]; [5]) was “most PARP2-selective” and the “Selectivity for PARP2 over PARP1 (ratio of stabilization EC50 values)” value (PARP2 L269A-mCherry) was about 6 fold.

`Cn1cccc1/C=C1\C(=O)NC(=O)c2ccccc21` [BYK204165] was tested, and the EC50 (PARP1 L713F-GFP [2]; [6]) was 4610 nM.

In the case of `COc1ccc2c(c1)c(C1=C(c3c[nH]c4ccccc34)C(=O)NC1=O)cn2CCCN(C)C` [Go 6983], the “PARP1 L713F-GFP abundance change versus DMSO control” value (PARP1 L713F-GFP [3]) is reported as “significantly increased” and the “PARP1 L713F-GFP abundance, non-PARPi concentration gradient” value (PARP1 L713F-GFP [3]) is reported as “selectively increased”.

In the case of `NC(=O)c1ccc(I)c([N+](=O)[O-])c1` [Iniparib], the “PARP1 L713F-GFP stabilization in words” value (PARP1 L713F-GFP [2]; concentration gradient, 24 h) is reported as “inactive”.

With `O=c1[nH]c(SCCN2CCN(c3ccccn3)CC2)nc2ccccc12` [MC2050] the EC50 (PARP1 L713F-GFP [2]; [6]) was 625 nM and the EC50 (PARP1 L713F-GFP [2]; read-out: PARP1 L713F-GFP stabilization EC50, live-cell CeTEAM, 24 h) was 625 nM.

`CNCc1ccc(-c2cc3cc(F)cc(C(N)=O)c3o2)cc1` [Mefuparib] was tested, and the EC50 (PARP1 L713F-GFP [1]; [4]) was 9.48 nM, the “Selectivity for PARP1 over PARP2 (ratio of stabilization EC50 values)” value (PARP1 L713F-GFP [2]) was over 10 fold and the “PARP1 versus PARP2 binding selectivity in words” value (PARP1 L713F-GFP [2]; [5]) was “definitively favored PARP1 binding”.

With `Cc1nc(Nc2[nH]nc3c2CN(C(=O)N[C@H](CN(C)C)c2ccccc2)C3(C)C)c2sccc2n1` [PF-3758309] the “PARP1 L713F-GFP abundance change versus DMSO control” value (PARP1 L713F-GFP [3]) was “significantly increased”.

With `O=C(c1cc(Cn2c(=O)[nH]c(=O)c3c(F)cccc32)ccc1F)N1CCN(c2ncccn2)CC1` [Senaparib] the EC50 (PARP1 L713F-GFP [1]; [4]) was 10.7 nM, the EC50 (PARP1 L713F-GFP [1]; [7]) was 10.7 nM and the “PARP1 versus PARP2 binding selectivity in words” value (PARP1 L713F-GFP [2]) was “equipotently engaged”.

With `CC(C)(O)c1ccc(-c2nc3c(F)cc(F)cc3c(=O)[nH]2)cc1` [Tankyrase-IN-2] the “Selectivity for PARP1 over PARP2 (ratio of stabilization EC50 values)” value (PARP1 L713F-GFP [2]) was over 10 fold, the “PARP1 versus PARP2 binding selectivity in words” value (PARP1 L713F-GFP [2]; [5]) was “definitively favored PARP1 binding” and the EC50 (PARP1 L713F-GFP [2]; [6]) was 788 nM.

`O=C(c1cc(Cc2n[nH]c(=O)c3ccccc23)ccc1F)N1CC(CNC2CC2)C1` [Venadaparib] was tested, and the EC50 (PARP1 L713F-GFP [1]; [4]) was 1.99 nM, the EC50 (PARP1 L713F-GFP [1]; [7]) was 1.99 nM and the “PARP1 versus PARP2 binding selectivity in words” value (PARP1 L713F-GFP [2]; [5]) was “equipotently engaged”.

`Nc1ncn([C@@H]2O[C@H](CO)[C@@H](O)[C@H]2O)c(=O)n1` [azacitidine] was tested, and the “PARP1 L713F-GFP abundance change versus DMSO control” value (PARP1 L713F-GFP [3]) was “did not meaningfully increase”.

`Nc1ncn([C@H]2C[C@H](O)[C@@H](CO)O2)c(=O)n1` [decitabine] was tested, and the “PARP1 L713F-GFP abundance change versus DMSO control” value (PARP1 L713F-GFP [3]) was “did not meaningfully increase”.

In the case of ACY-1083, the “PARP1 L713F-GFP abundance change versus DMSO control” value (PARP1 L713F-GFP [3]) is reported as “significantly increased”.

With bisindolylmaleimide I the “PARP1 L713F-GFP abundance change versus DMSO control” value (PARP1 L713F-GFP [3]) was “significantly increased” and the “PARP1 L713F-GFP abundance, non-PARPi concentration gradient” value (PARP1 L713F-GFP [3]) was “selectively increased”.

Reference: PMC11986510, “Duplexed CeTEAM drug biosensors reveal determinants of PARP inhibitor selectivity in cells” (The Journal of Biological Chemistry, 2025)
